Patent publication US20180318381A1, “Methods of Treatment of Rhabdomyolysis” (University of Pittsburgh - Of the Commonwealth System of …, priority 2015, published 2018)

System: patients with LC-FAODs
Conditions: after initiation vs before-treatment period; n=16 subjects >6 months of age; P=0.1126

`CCCCCCC(=O)OCC(COC(=O)CCCCCC)OC(=O)CCCCCC` [triheptanoin, 1,3-di(heptanoyloxy)propan-2-yl heptanoate] was tested, and the “lower hospitalization event rate (trend)” value was 35%.
